# According to publication PMC4336329 (PLoS ONE, 2015):
# About 14,000 (4.5%) of roughly 310,000 compounds showed an effect of 50% or more. Effects have a minus sign here. The list shows a part of the results.
# Target: human ether-à-go-go-related gene (hERG) potassium channel (human, UniProt Q12809)
# Assay: primary screen, population patch clamp on CHO cells stably expressing hERG
# 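Note: peak tail current of the secondary pulse compared with the same well before compound.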
# Chain of human ether-à-go-go-related gene (hERG) potassium channel (Q12809 whole entry, looked up): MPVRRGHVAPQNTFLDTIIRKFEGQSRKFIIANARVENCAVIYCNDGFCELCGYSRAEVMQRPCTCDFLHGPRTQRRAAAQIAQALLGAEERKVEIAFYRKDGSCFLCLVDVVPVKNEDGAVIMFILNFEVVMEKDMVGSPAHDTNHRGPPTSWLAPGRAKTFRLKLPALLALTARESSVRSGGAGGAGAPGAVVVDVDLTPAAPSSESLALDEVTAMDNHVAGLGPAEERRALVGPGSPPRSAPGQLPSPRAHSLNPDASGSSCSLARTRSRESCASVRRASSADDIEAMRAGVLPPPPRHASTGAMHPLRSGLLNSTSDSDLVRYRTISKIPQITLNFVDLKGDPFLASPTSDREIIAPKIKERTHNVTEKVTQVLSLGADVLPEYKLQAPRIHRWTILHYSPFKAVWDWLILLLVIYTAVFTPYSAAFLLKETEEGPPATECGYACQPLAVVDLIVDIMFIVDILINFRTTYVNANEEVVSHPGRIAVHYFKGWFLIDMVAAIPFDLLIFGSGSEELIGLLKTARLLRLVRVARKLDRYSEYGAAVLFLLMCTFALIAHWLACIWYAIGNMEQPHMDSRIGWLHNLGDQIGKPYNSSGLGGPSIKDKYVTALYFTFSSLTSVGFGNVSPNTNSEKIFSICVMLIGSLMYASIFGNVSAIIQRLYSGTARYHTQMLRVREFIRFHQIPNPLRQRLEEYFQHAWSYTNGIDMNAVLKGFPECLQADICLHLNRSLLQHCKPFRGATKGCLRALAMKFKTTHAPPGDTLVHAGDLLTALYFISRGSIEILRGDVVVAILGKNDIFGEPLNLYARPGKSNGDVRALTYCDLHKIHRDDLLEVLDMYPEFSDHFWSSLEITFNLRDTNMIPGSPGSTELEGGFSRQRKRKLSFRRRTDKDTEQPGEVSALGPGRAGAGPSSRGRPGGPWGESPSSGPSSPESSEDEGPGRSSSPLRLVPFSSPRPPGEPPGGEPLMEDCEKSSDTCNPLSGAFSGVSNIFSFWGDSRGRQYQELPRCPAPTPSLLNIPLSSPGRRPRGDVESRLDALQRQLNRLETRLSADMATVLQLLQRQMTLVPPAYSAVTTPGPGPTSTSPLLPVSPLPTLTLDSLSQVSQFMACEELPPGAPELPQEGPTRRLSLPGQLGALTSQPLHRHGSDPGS
row,Compound,"hERG current change (%, negative = inhibition) at 10uM [%]"
1,COc1ccc(-c2cn3ccc(C)cc3n2)cc1,-28.4
2,O=C(CSc1nccn1-c1ccccc1)NCc1ccc(F)cc1,-10.3
3,O=S(=O)(c1ccc(NC(=S)Nc2ccc(OC(F)F)cc2)cc1)N1CCOCC1,-27.7
4,COc1ccc(Nc2nnc(-c3ccc(C(=O)NCCO)cc3)c3ccccc23)cc1,-4.6
5,CC(C)(C)C1CCC(=NNC(=O)C2COc3ccccc3O2)CC1 (stereo not drawn),0.995
6,CC1CCCC(C)N1C(=O)COc1ccc([N+](=O)[O-])cc1Cl (stereo not drawn),-1.05
7,COc1ccc(C(=O)Nc2nc(-c3ccc([N+](=O)[O-])cc3)c(-c3ccccc3)s2)cc1,4.35
8,CC1Cc2cc(S(=O)(=O)NCc3ccccc3)ccc2N1C(=O)C1CCC1 (stereo not drawn),20.7
9,COc1cccc(C(=O)N(Cc2ccc(N(C)C)cc2)C2CCS(=O)(=O)C2)c1 (stereo not drawn),-18.1
10,CCCCSC1=C(C#N)C(c2ccccc2C)CC(=O)N1 (stereo not drawn),5.6
11,O=C(c1cc(COc2cccc(C(F)(F)F)c2)on1)N1CCC(c2ccncc2)CC1,-78.8
12,Cc1cc(=O)[nH]c(N/N=C/C=C/c2ccccc2)n1,-46.9
13,O=C(NC(=S)Nc1ccc(S(=O)(=O)Nc2nccs2)cc1)c1cccnc1,23.1
14,CC(=O)c1sc(NC(=O)CCS(=O)(=O)c2ccc(Cl)cc2)nc1C,-5.04
15,O=C(CSc1nncn1-c1ccccc1)Nc1ccccc1,-0.536
16,O=C(O)COc1ccc(/C=C/C(=O)c2ccc3ccccc3c2)cc1,14.3
17,Cc1ccc(-c2nc(CS(=O)(=O)CC(=O)Nc3cc(F)ccc3F)c(C)o2)cc1,-2.41
18,Cc1nnc2ccc(-c3ccc(NC(=O)c4cccnc4Cl)cc3)nn12,-0.347
19,Cc1cc(C)c(C)c(S(=O)(=O)N2CCN(CC(=O)NC(=O)NCc3ccccc3)CC2)c1C,11.2
20,O=C(COC(=O)c1ccc(Cl)cc1)NC1CCCCCC1,8.02
21,CC(C)(C)c1cc2cccnc2n1Cc1cccc(Cl)c1,-37.8
22,O=C(O)c1cccc(Nc2ccc([N+](=O)[O-])c3nonc23)c1,8.47
23,Cc1ccc(NC(=S)N(Cc2cccs2)Cc2cc3cccc(C)c3[nH]c2=O)cc1,-9.88
24,CCOC(=O)/C(C#N)=C/c1ccc(OC(=O)c2ccco2)c(OCC)c1,0.972
25,O=C(Nc1ccc2nn(-c3ccccc3)nc2c1)c1ccc(Br)o1,7.88
26,COc1ccccc1-n1c(SCC(=O)N2CCOCC2)nc2cccnc21,1.31
27,O=C(O)[C@@H]1CC(O)CN1C(=O)CCc1c[nH]c2ccccc12 (stereo partly drawn),7.3

row,Compound,"hERG current change (%, negative = inhibition) at 10uM [%]"
1,O=C(c1cc2cc(Cl)ccc2[nH]1)N1CCCCC1,-4.79
2,CCCOc1ccc(N2C(=O)CC(N3CCN(CCN=CC4C(=O)CC(C)(C)CC4=O)CC3)C2=O)cc1 (stereo not drawn),-7.04
3,COCCn1c(SCC(=O)Nc2ccc(C)cc2)nc2c(oc3ccccc32)c1=O,9.31
4,COc1ccccc1-n1cnc2c(c1=O)c1nc3ccccc3nc1n2-c1ccc(C)cc1,-19.7
5,CCOC(=O)[C@@H]1[C@H]2COc3cc(OC)ccc3[C@@H]2N2C(=O)N(c3ccc(C(F)(F)F)cc3)C(=O)[C@@]12C,0.831
6,CN(C)/C=C/C(=O)c1ccc(-n2cccc2)cc1,-17.1
7,O=C(CSc1nc2ccccc2[nH]1)NC(=O)NCc1ccco1,-9.5
8,COc1ccc(N(C)C(=O)c2cc3c(s2)-c2ccccc2OC3)c(OC)c1,-1.98
9,Cc1ccc(C2=CC(c3ccc(C)cc3)n3ncnc3N2)cc1 (stereo not drawn),-17.6
10,NC1=NC2(CCN(Cc3ccccc3)CC2)n2c(nc3ccccc32)N1,-15.8
11,COc1cccc(C2NC(=O)NC(C)=C2C(=O)Nc2ccc(C)cc2)c1 (stereo not drawn),12.6
12,CN(C)CCCN(C(=O)c1ccc(S(=O)(=O)N(C)Cc2ccccc2)cc1)c1nc2cc3c(cc2s1)OCO3.Cl,-51.7
13,O=c1c2ccccc2sn1-c1ccc(F)cc1,16.1
14,S=C(Nc1ccccc1Cl)NC1CCCCCC1,-8.92
15,O=C(Nc1nccs1)C12CC3CC(C1)CC(C(=O)Nc1nccs1)(C3)C2,-11.1
16,CN(C[C@H](Cc1ccccc1)N(C[C@H](Cc1cccc2ccccc12)N(CCc1ccccc1)N=O)N=O)N=O.[Na+],11.2
17,Cc1ccc[n+](CC(=O)Nc2ccc(C)c(C)c2)c1.[Cl-],10.4
18,COc1ccccc1NC(=O)c1ccccc1-c1ccccc1C(=O)O,19.3
19,COCCn1cc(C(=S)N2CCCCC2)c2ccccc21,8.68
20,Cc1nc2sc(-c3ccccc3)nn2c(=O)c1Br,-1.74
21,CC(=O)NC1C(=O)N=C(SC(C)C(=O)Nc2cccc(Cl)c2)NC1=O (stereo not drawn),16.4
22,CC(C)N(C)C(=O)CCc1nnc(CCc2c[nH]c3ccccc23)o1,6.75
23,O=C(COC(=O)c1ccc(F)cc1F)Nc1ncccn1,-3.24
24,COc1ccc2c(Cl)c(C(=O)NCc3ccco3)sc2c1,-3.47
25,CCOC(=O)c1oc2ccc(OC)cc2c1NC(=O)CN1CCN(C)CC1.Cl,-5.54
26,O=C(O)c1cc2c(cc1NC(=O)c1c(F)cccc1Cl)OCCCO2,5.08
27,O=C(CN1CCN(Cc2ccccc2)CC1)Nc1ccc([N+](=O)[O-])cc1C(=O)Nc1ccccc1F,-77.5
